PMC2724708, “Adenosine Kinase of T. b. rhodesiense Identified as the Putative Target of 4-[5-(4-phenoxyphenyl)-2H-pyrazol-3-yl]morpholine Using Chemical Proteomics” (PLoS Neglected Tropical Diseases, 2009)

Molecular target: T1, adenosine kinase of T. b. rhodesiense (TbrAK) (Trypanosoma brucei rhodesiense, UniProt Q584S0)
T1 sequence (Q584S0 1-345): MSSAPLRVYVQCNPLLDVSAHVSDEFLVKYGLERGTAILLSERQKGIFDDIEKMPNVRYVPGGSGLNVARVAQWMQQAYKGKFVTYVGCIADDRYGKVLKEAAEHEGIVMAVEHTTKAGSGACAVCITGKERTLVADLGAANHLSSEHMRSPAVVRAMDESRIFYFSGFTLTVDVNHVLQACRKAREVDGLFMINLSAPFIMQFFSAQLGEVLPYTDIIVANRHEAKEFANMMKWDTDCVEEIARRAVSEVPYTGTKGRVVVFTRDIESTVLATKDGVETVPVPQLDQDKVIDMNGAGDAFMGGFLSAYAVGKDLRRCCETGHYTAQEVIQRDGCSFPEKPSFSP
Assay: Isothermal titration calorimetry (ITC) with TbrAK
Assay type: binding
Description: Isothermal titration calorimetry (ITC) was employed to elucidate the binding affinity of compound 1 toward TbrAK. All solutions were degassed for 5 min with gentle stirring under vacuum. TbrAK was dialyzed into buffer E2 (20 mM Tris, 150 mM NaCl, pH 7.5, 5% glycerol), diluted to 7 µM and supplemented with 1% DMSO, filtered and filled into the sample cell. The ligand solution was prepared by diluting a stock solution of compound 1 or 5 in DMSO with buffer E2 to give a final concentration of 150 µM and 1% DMSO. The final ligand solution was filtered before use. A titration experiment consisted of a first control injection of 1 µl followed by 27 injections, each of 10 µl and 20 s duration, with a 4-min interval in between. Raw data were collected, corrected for ligand heats of dilution, integrated and fit to the two-set non-interacting binding sites model using the Origin® software supplied with the instrument. The measurements were performed at least in duplicate.

c1ccc(Oc2ccc(-c3cc[nH]n3)cc2)cc1 [compound 5, 3-(4-phenoxyphenyl)-1H-pyrazole]
specific heat release on titration of TbrAK: no specific heat release
